Assay results from PubChem BioAssay AID686979 (National Center for Advancing Translational Sciences (NCATS), 2013).
Several values for one entry are separate records, joined by “and”; a condition that tells them apart may be missing. Identical values can stand only once. About 50,000 (12%) of roughly 420,000 compounds were called active. Inconclusive means that the source gave no clear call. Such entries were picked first, then a sample of the others. Calls follow the shape of the dose curve; as a rule, active = well fitted inhibition curve with a large enough effect; inconclusive = small, poorly fitted or top-dose-only effect; inactive = flat fitted curve, though single readings scatter. Where the call is inconclusive, the potency comes from a doubtful curve fit.

Assay: qHTS for Inhibitors of human tyrosyl-DNA phosphodiesterase 1 (TDP1): qHTS in cells in presence of CPT; also: nearly all actives have a fitted effect of over 55% in size
Conditions: chicken DT40 Tdp1-/-;hTDP1 cells + 20 nM CPT, ATP luminescence, 48 h; activity change, negative = growth inhibition: at 46.2 µM (top of the series) unless noted
Outline: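 Chicken DT40 Tdp1-/- cells complemented with human TDP1, 400 cells/well, exposed to compounds plus 20 nM camptothecin for at least 48 h at 37 C; viability read as ATP content by CellTiter-Glo luminescence.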
% is scaled to controls: 0 for no effect and ±100 for the full control effect; potency is read from the fitted curve at half-maximal effect; tags tell the direction and shape of the fitted curve.

Compound	Potency	activity change, negative = growth inhibition
Cc1c(NC(=O)Oc2ccccc2)sc(=S)n1C	inconclusive: 29.1 µM [inhibitor, single point]	
N#CCCN(Cc1cccnc1)C(=O)c1sc2cc(F)ccc2c1Cl	inconclusive: 29.1 µM [inhibitor, single point]	
CC1=C(CO)C(=O)OC([C@@H](C)C2CC[C@H]3C4C[C@H]5O[C@]56[C@@H](O)C=CC(=O)[C@]6(C)C4CC[C@]23C)C1 (stereo partly specified)	active: 1.46 µM	
CC1CCCC(NC(=O)c2ccc3c(c2)OCCO3)C1C (stereo unspecified)	inconclusive: 29.1 µM [inhibitor, single point]	
O=C(Nc1cc(Cl)ccc1Cl)c1cc(S(=O)(=O)NCCc2ccccc2)ccc1F	inconclusive: 29.1 µM [inhibitor, single point]	
C[C@]12CC[C@H](O)CC1=CCC1C2CC[C@@]2(C)C1CC[C@@H]2NC(=O)[C@@H](N)Cc1ccccc1 (stereo partly specified)	inconclusive: 25.9 µM [inhibitor, single point]	
O=C(Nc1cccc(Cl)c1)N1CCN(C/C=C/c2ccccc2)CC1	inconclusive: 29.1 µM [inhibitor, single point]	
COc1ccc(-c2nc3c(c(SCC(=O)Nc4cccc(O)c4)n2)Cc2c(CO)cnc(C)c2O3)cc1	inconclusive: 16.4 µM [inhibitor, single point] and inconclusive: 18.4 µM [inhibitor, single point]	
Cc1nc(CNC(=O)c2cc(COc3ccc(F)cc3Cl)on2)cs1	inconclusive: 25.9 µM [inhibitor, single point]	
O=c1c2[nH]cnc2n(-c2ccccc2)c(=O)n1Cc1ccccc1	inconclusive: 29.1 µM [inhibitor, single point]	
COc1ccc(CN2C(=O)N(c3ccccc3)C(=O)C2CC(=O)Nc2ccccc2)cc1OC (stereo unspecified)		inactive: 0.463%
Cc1ccc(C(=O)N(Cc2ccco2)Cc2sccc2C)cc1	active: 20.6 µM	
C/C=C(\C)C(=O)NCCN1C2=NC[C@@H](Cc3ccccc3)N2C[C@@H]1Cc1ccc(OC)cc1		inactive: -26.1%
Cc1noc(C)c1COC(=O)c1cc(C)n(-c2ccccc2)c1C	inconclusive: 14.6 µM [inhibitor, partial curve, poor fit]	
COc1cc(OC)c(C(=O)O/N=C(\N)c2ccccc2)cc1OC	inconclusive: 23.1 µM [inhibitor, single point]	
CC(=O)c1ccc(N2CCN(C(=O)c3ccc(Cl)c(S(=O)(=O)NC4CC4)c3)CC2)c(F)c1	inconclusive: 29.1 µM [inhibitor, single point]	
Cc1ccc2[nH]c3c(c2c1)CCCC3NC(=O)CCl (stereo unspecified)	active: 6.51 µM	
CN(C)C=NC(=O)c1cc(C(=O)c2ccc(C(C)(C)C)cc2)c[nH]1	inconclusive: 29.1 µM [inhibitor, single point]	
COc1ccc(C)cc1NC(=O)CN1c2cccc3cccc(c23)S1(=O)=O	inconclusive: 25.9 µM [inhibitor, single point]	
COc1ccc(NC(=O)COc2cc(C)cc(C)c2)cc1S(=O)(=O)N1CCCCC1	active: 7.31 µM	
CCN(CCNC(=O)C1CCN(Cc2nc(-c3ccc(Cl)cc3)oc2C)CC1)c1ccccc1	active: 23.1 µM	
CC(C)CNC(=O)c1ccc(-c2ccc(F)c(F)c2)c2ccoc12	inconclusive: 29.1 µM [inhibitor, single point]	

Compound	Potency	activity change, negative = growth inhibition
COc1ccc(CC(=O)N(CCC2=CCCCC2)c2c(N)n(Cc3ccccc3)c(=O)[nH]c2=O)cc1	inconclusive: 13 µM [inhibitor, partial curve, poor fit]	
COc1cc2c(cc1OC)-c1nnc(-c3cccs3)n1C1(CCCC1)C2	active: 20.6 µM	
COC(=O)c1cccc(CN2C(=O)C(C)Sc3cc(Cl)ccc32)c1 (stereo unspecified)	inconclusive: 29.1 µM [inhibitor, partial curve, poor fit]	
COc1cc(OC)cc(C(=O)Nc2cc3c(cc2N2CCCCC2)n(C)c(=O)n3C)c1	inconclusive: 2.06 µM [inhibitor, partial curve]	
Cc1ccc(O)c(CNc2nc3ccccc3[nH]2)c1	inconclusive: 29.1 µM [inhibitor, single point]	
COc1ccc(/C=C/C(=O)OCC(=O)N2CC(=O)Nc3ccccc32)cc1S(=O)(=O)N1CCOCC1	inconclusive: 29.1 µM [inhibitor, single point]	
COc1ccc(/C=N/NC(=O)c2cccc([N+](=O)[O-])c2)cc1OC(=O)c1ccccc1	active: 16.4 µM	
COc1ccc(N2CCN(C(=O)c3ccc(S(=O)(=O)N4CCCCCC4)cc3)CC2)cc1	inconclusive: 20.6 µM [inhibitor, single point]	
COc1ccc2c(c1)OCC(Cc1ccc(OC)c(OC)c1)C2O (stereo unspecified)	inactive	
COc1cc2[nH]c(=O)n(C3CCCCC3)c(=O)c2cc1OC	inconclusive: 13 µM [inhibitor, partial curve]	
COc1ccc(C)cc1-n1nnnc1SCc1nc2ccccc2s1		inconclusive: -33.3% [inhibitor]
CC1=NN(c2cccc(Cl)c2)C(=O)C12CC(C)=C(C)CS2 (stereo unspecified)	inconclusive: 23.1 µM [inhibitor, single point]	
Fc1ccc(Br)cc1C1C=C(c2ccc(Br)s2)Nc2ncnn21 (stereo unspecified)	active: 0.92 µM	
CCc1ccc(NC(=O)C2CCN(c3nn4cc(-c5ccc(OC)cc5)nc4s3)CC2)cc1	inconclusive: 16.4 µM [inhibitor, partial curve]	
Cc1ccccc1Nc1ncnc2c1cnn2Cc1ccccc1	inconclusive: 29.1 µM [inhibitor, single point]	
CCN(CC)C(=O)Cn1c(=O)n(-c2ccc(Cl)c(Cl)c2)c(=O)c2c(C)c(C(=O)N(CC)CC)sc21		inactive: 6.26%
Cc1cc(C(=O)N2CCN(c3ccc([N+](=O)[O-])cc3)CC2)co1	inconclusive: 20.6 µM [inhibitor, single point]	
COc1cc(C(=O)NCC2(N(C)C)CCCCC2)ccc1OCc1ccccc1		inactive: 8.73%
Cc1ccc(NC(=O)Nc2cccc(Cl)c2)c(C(=O)O)c1	inconclusive: 29.1 µM [inhibitor, single point]	
CC(C)=CCOc1c2ccoc2c(OCC=C(C)C)c2oc(=O)ccc12	inconclusive: 23.1 µM [inhibitor, single point]	
Cc1cccc(S(=O)(=O)Nc2cccc(-c3ccc(N4CCCCC4)nn3)c2)c1	inconclusive: 18.4 µM [inhibitor, single point]	
C=C(C(=O)c1ccccc1)C(C(=C)C(=O)c1ccccc1)c1ccc(OC)cc1	active: 10.3 µM	

Compound	Potency	activity change, negative = growth inhibition
CS(=O)(=O)N1CCc2cc(S(=O)(=O)Nc3ccc4c(c3)OCCO4)ccc21	active: 11.6 µM	
CC(C)c1ccc2oc(=O)cc(CN3CCN(Cc4ccccc4)CC3)c2c1	inconclusive: 20.6 µM [inhibitor, single point]	
Cc1nn(C)c(Cl)c1NC(=O)OCc1ccc(Cl)cc1Cl	active: 14.6 µM	
CCCCCCCNC(=O)C1(CC2CC(c3ccc(Cl)cc3)=NO2)CCN(C(=O)C2(C)CC2)CC1 (stereo unspecified)	inconclusive: 29.1 µM [inhibitor, single point]	
CCC(=O)N1CCN(c2cc(NCC3CCCO3)c(F)cc2[N+](=O)[O-])CC1 (stereo unspecified)		inactive: -4.38%
COc1cc(/C=C/c2sc3ccccc3[n+]2CCCS(=O)(=O)[O-])ccc1O	inconclusive: 7.31 µM [inhibitor, full curve, poor fit]	
O=C(NCCOc1ccccc1)C1CCC(=O)N(C2CCCCCC2)C1 (stereo unspecified)		inactive: -12.4%
O=C(c1ccccc1-c1nc2ccccc2[nH]1)N1CCCCC1		inactive: 6.54%
CN(Cc1c(C(=O)N/N=C/c2c(F)cccc2Cl)nnn1-c1nonc1N)C1CCCCC1		inactive: -6.76%
CN(C(=O)c1ccc(NC(=O)Cc2cccc(NC(=O)C3CCCN(C(=O)C4CCCC4)C3)c2)cc1)C1CC1 (stereo unspecified)		inactive: -25.5%
COc1ccc2nc(SCC(=O)Nc3cc(C)on3)c(C#N)cc2c1		inconclusive: -35.5% [inhibitor]
c1ccc(-c2cc3c(N4CCOCC4)ncnc3s2)cc1	active: 16.4 µM	
CN(Cc1nc2ccccc2c(=O)[nH]1)C(=O)c1cc(-c2ccc(Br)cc2)nc2ccccc12	inconclusive: 29.1 µM [inhibitor, single point]	
Cn1cc(CN2CCCCC2CO)c(-c2ccc(Oc3ccccc3)cc2)n1 (stereo unspecified)	inconclusive: 16.4 µM [inhibitor, partial curve]	
C[C@H](CO)N1C[C@H](C)[C@@H](CN(C)S(=O)(=O)c2ccc(F)cc2)Oc2c(NC(=O)Nc3ccc4c(c3)OCO4)cccc2C1=O	inconclusive: 0.58 µM [inhibitor, full curve, poor fit]	
CCCC(=O)N(C1CC(C)C(C#N)(C#N)C1(C#N)C#N)N(C)C (stereo unspecified)	active: 1.3 µM	
CC(=O)N1CCN(C(=S)NCCc2ccccc2)CC1		inactive: -14.1%
O=S(=O)(c1ccccc1)N1CCCCC1CCc1ccccc1 (stereo unspecified)	inconclusive: 18.4 µM [inhibitor, single point]	
CCC(=O)N1c2ccc(S(=O)(=O)CCC(=O)NC3CCCC3)cc2CC1C (stereo unspecified)		inactive: -27.2%
CCc1ccc(NC(=O)CCn2c(-c3ccc(OC)cc3)cc(C(C)=O)c2C)cc1	active: 16.4 µM	
COC(=O)CCC(=O)OC1(C)C(=O)C2=CN(c3ccccc3)C(c3ccc(OC)cc3)=CC2=C(Br)C1=O (stereo unspecified)	inconclusive: 29.1 µM [inhibitor, single point]	
COc1ccc(NC(=S)N2CCCN(Cc3cc(C)ccc3C)C2)cc1	inconclusive: 29.1 µM [inhibitor, single point]	
